# The list shows a part of the results. The full chains were built here from the parent and the listed change. Inactive controls read about 0.05.
# B1: TEV protease; numbered along this chain (parent)
# chain: MGESLFKGPRDYNPISSSICHLTNESDGHTTSLYGIGFGPFIITNKHLFRRNNGTLVVQSLHGVFKVKDTTTLQQHLVDGRDMIIIRMPKDFPPFPQKLKFREPQREERICLVTTNFQTKSMSSMVSDTSCTFPSGDGIFWKHWIQTKDGQCGSPLVSTRDGFIVGIHSASNFTNTNNYFTSVPKNFMELLTNQEAQQWVSGWRLNADSVLWGGHKVFMVKPEEPFQPVKEATQL
# Variants of: B1
# Test: raw area under fraction-flipped curve 0-4 h after induction (AUC4h, not background-subtracted), DNA-recorder readout of cleavage of the substrate (dimensionless); higher = more cleavage of the substrate by the protease variant
# Settings: temperature: 34 °C; time window: 0-4 h after rhamnose induction
# Method: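 In vivo DNA recorder in E. coli TOP10(DE3) ΔrhaA at 34 °C. Each TEVp single-site mutant (parent TEVp 0) is paired with a single-site variant of the 7-mer TEVs (canonical ENLYFQ|S). The substrate sits between flexible linkers in a Bxb1-sfGFP-TEVs-SsrA fusion, so cleavage stabilises Bxb1 and speeds flipping of a recombination array, read by NGS. The value is the raw area under the fraction-flipped curve over 0-4 h after rhamnose induction (AUC4h), with ≥20 reads per time point. It is not background-subtracted; inactive controls average about 0.047.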
# 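Note: Bxb1 expression induced with 0.2% (w/v) L-rhamnose at OD600 near 0.5, cultures sampled hourly, flipped fraction per protease–substrate barcode pair counted by paired-end Illumina sequencing.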
variant,measurement,value
S18G,area with substrate ENAYFQS,0.0723
same,area with substrate ENDYFQS,0.0569
same,area with substrate ENEYFQS,0.0522
same,area with substrate ENGYFQS,0.07
same,area with substrate ENHYFQS,0.0654
same,area with substrate ENMYFQS,0.0794
same,area with substrate ENNYFQS,0.0626
same,area with substrate ENPYFQS,0.08
same,area with substrate ENQYFQS,0.129
same,area with substrate ENRYFQS,0.0587
same,area with substrate ENSYFQS,0.0442
same,area with substrate ENTYFQS,0.0754
same,area with substrate ENVYFQS,0.0763
same,area with substrate ENYYFQS,0.082
P93L,area with substrate ENAYFQS,0.0793
same,area with substrate ENDYFQS,0.0527
same,area with substrate ENEYFQS,0.0677
same,area with substrate ENFYFQS,0.0471
same,area with substrate ENGYFQS,0.0596
same,area with substrate ENKYFQS,0.0614
same,area with substrate ENMYFQS,0.0582
same,area with substrate ENSYFQS,0.0501
same,area with substrate ENVYFQS,0.0591
P93C,area with substrate ENAYFQS,0.0456
same,area with substrate ENEYFQS,0.0455
same,area with substrate ENFYFQS,0.0499
same,area with substrate ENMYFQS,0.0861
same,area with substrate ENQYFQS,0.0695
same,area with substrate ENSYFQS,0.0676
same,area with substrate ENVYFQS,0.0691
T30D,area with substrate ENAYFQS,0.059
same,area with substrate ENCYFQS,0.0627
same,area with substrate ENDYFQS,0.0627
same,area with substrate ENFYFQS,0.0473
same,area with substrate ENHYFQS,0.056
same,area with substrate ENMYFQS,0.067
same,area with substrate ENNYFQS,0.0452
same,area with substrate ENSYFQS,0.0531
P89A,area with substrate ENAYFQS,0.0744
same,area with substrate ENDYFQS,0.0801
same,area with substrate ENEYFQS,0.0517
same,area with substrate ENHYFQS,0.0606
same,area with substrate ENQYFQS,0.071
same,area with substrate ENSYFQS,0.0476
P89V,area with substrate ENAYFQS,0.0355
same,area with substrate ENDYFQS,0.0512
same,area with substrate ENNYFQS,0.0447
same,area with substrate ENPYFQS,0.0401
same,area with substrate ENQYFQS,0.0629
same,area with substrate ENSYFQS,0.05
same,area with substrate ENVYFQS,0.0602
L22M,area with substrate ENAYFQS,0.0447
same,area with substrate ENCYFQS,0.0597
same,area with substrate ENDYFQS,0.0642
same,area with substrate ENEYFQS,0.0559
same,area with substrate ENFYFQS,0.0609
same,area with substrate ENGYFQS,0.06
same,area with substrate ENHYFQS,0.0598
same,area with substrate ENIYFQS,0.0832
same,area with substrate ENMYFQS,0.0553
same,area with substrate ENPYFQS,0.0391
same,area with substrate ENQYFQS,0.0611
same,area with substrate ENSYFQS,0.0557
same,area with substrate ENTYFQS,0.0647
same,area with substrate ENVYFQS,0.0817
G80L,area with substrate ENAYFQS,0.0743
same,area with substrate ENDYFQS,0.0606
same,area with substrate ENEYFQS,0.0566
same,area with substrate ENHYFQS,0.0669
same,area with substrate ENIYFQS,0.116
same,area with substrate ENMYFQS,0.0766
same,area with substrate ENPYFQS,0.053
same,area with substrate ENQYFQS,0.0591
same,area with substrate ENRYFQS,0.0457
same,area with substrate ENSYFQS,0.0674
same,area with substrate ENVYFQS,0.0692
same,area with substrate ENWYFQS,0.0558
D91M,area with substrate ENAYFQS,0.0232
same,area with substrate ENNYFQS,0.0628
same,area with substrate ENRYFQS,0.0593
same,area with substrate ENSYFQS,0.0641
D91S,area with substrate ENAYFQS,0.0682
same,area with substrate ENEYFQS,0.076
same,area with substrate ENFYFQS,0.053
same,area with substrate ENNYFQS,0.0615
same,area with substrate ENQYFQS,0.0503
same,area with substrate ENRYFQS,0.0643
same,area with substrate ENSYFQS,0.0412
same,area with substrate ENVYFQS,0.112
same,area with substrate ENWYFQS,0.0017
same,area with substrate ENYYFQS,0.0461
V58G,area with substrate ENAYFQS,0.0428
same,area with substrate ENDYFQS,0.0421
same,area with substrate ENGYFQS,0.0554
same,area with substrate ENIYFQS,0.0683
same,area with substrate ENYYFQS,0.0513
G2A,area with substrate ENAYFQS,0.0615
same,area with substrate ENDYFQS,0.0472
same,area with substrate ENFYFQS,0.0659
same,area with substrate ENGYFQS,0.0636
same,area with substrate ENQYFQS,0.0618
same,area with substrate ENRYFQS,0.0579
same,area with substrate ENSYFQS,0.0725
same,area with substrate ENTYFQS,0.0717
same,area with substrate ENWYFQS,0.0636
G2Y,area with substrate ENAYFQS,0.0497
same,area with substrate ENCYFQS,0.0752
same,area with substrate ENEYFQS,0.0569
same,area with substrate ENHYFQS,0.0432
same,area with substrate ENIYFQS,0.17
same,area with substrate ENMYFQS,0.108
same,area with substrate ENTYFQS,0.0728
same,area with substrate ENVYFQS,0.103
G2H,area with substrate ENAYFQS,0.0642
same,area with substrate ENCYFQS,0.0656
same,area with substrate ENDYFQS,0.0744
same,area with substrate ENFYFQS,0.063
same,area with substrate ENGYFQS,0.067
same,area with substrate ENNYFQS,0.0562
same,area with substrate ENPYFQS,0.0296
same,area with substrate ENQYFQS,0.0592
same,area with substrate ENTYFQS,0.0776
same,area with substrate ENYYFQS,0.04
G2N,area with substrate ENAYFQS,0.048
same,area with substrate ENFYFQS,0.0593
same,area with substrate ENGYFQS,0.0445
same,area with substrate ENPYFQS,0.0533
same,area with substrate ENWYFQS,0.0373
G2F,area with substrate ENAYFQS,0.0659
same,area with substrate ENCYFQS,0.0832
same,area with substrate ENDYFQS,0.0562
same,area with substrate ENEYFQS,0.0564
same,area with substrate ENGYFQS,0.0404
same,area with substrate ENIYFQS,0.11
same,area with substrate ENKYFQS,0.0568
same,area with substrate ENQYFQS,0.0659
same,area with substrate ENRYFQS,0.0692
same,area with substrate ENTYFQS,0.0582
same,area with substrate ENVYFQS,0.0683
L5H,area with substrate ENAYFQS,0.0658
same,area with substrate ENCYFQS,0.0517
same,area with substrate ENDYFQS,0.0556
same,area with substrate ENEYFQS,0.0606
same,area with substrate ENQYFQS,0.0597
same,area with substrate ENTYFQS,0.0562
same,area with substrate ENYYFQS,0.0542
R81A,area with substrate ENAYFQS,0.0632
same,area with substrate ENCYFQS,0.0692
same,area with substrate ENDYFQS,0.0646
same,area with substrate ENFYFQS,0.0493
same,area with substrate ENKYFQS,0.0529
same,area with substrate ENQYFQS,0.0574
same,area with substrate ENSYFQS,0.0597
same,area with substrate ENTYFQS,0.0579
D27E,area with substrate ENAYFQS,0.0672
same,area with substrate ENCYFQS,0.0623
same,area with substrate ENDYFQS,0.0668
same,area with substrate ENEYFQS,0.0711
same,area with substrate ENGYFQS,0.0335
same,area with substrate ENHYFQS,0.0514
same,area with substrate ENSYFQS,0.0655
same,area with substrate ENTYFQS,0.0545
F6T,area with substrate ENAYFQS,0.056
same,area with substrate ENEYFQS,0.0793
same,area with substrate ENQYFQS,0.0618
same,area with substrate ENSYFQS,0.0752
same,area with substrate ENTYFQS,0.0715
